From PubChem BioAssay AID504832 (National Center for Advancing Translational Sciences (NCATS), 2011)
In all, about 310,000 compounds went through this assay and about 18,000 (5.8%) were called active. Inconclusive results, whose numbers are uncertain, are shown with a selection of clear calls. Calls come from the whole dose curve; as a rule, active = well fitted inhibition curve with a large enough effect; inconclusive = small, poorly fitted or top-dose-only effect, or another doubt; inactive = no such curve, though single readings can be large or run the other way. No potency is given beside an inconclusive call; the fits are too rough.
% is set by controls: 0 for no effect and ±100 for the full control effect; potency is the fitted concentration of half-maximal effect; tags give direction and shape of the fitted curve.

Assay: Primary qHTS for delayed death inhibitors of the malarial parasite plastid, 48 hour incubation
Details: P. falciparum luciferase growth in erythrocytes; series mostly up to 28.7 µM; activity change, negative = inhibition: at the top concentration
Outline: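 Parasite viability was followed by luminescence of a genomically integrated firefly luciferase. Cultures held 0.1% parasitemia at 2% hematocrit (final), incubated under 5% CO2 at 37 C.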
With COc1ccc(C2C(C(C)=O)=C(O)C(=O)N2c2cccnc2)c(OC)c1 (stereo not given) the Potency was inconclusive [inhibitor, single point].
In the case of CCc1c(C)nc2ncnn2c1N1CCCC(C(=O)NCCc2ccc(OC)cc2)C1 (stereo not given), the Potency is reported as inconclusive [inhibitor, single point].
For COc1ccc(C(=O)Nc2ccccc2Cc2ccccc2)c(OC)c1, the Potency was inconclusive [inhibitor, single point].
For Cc1cc(Nc2nc3ccccc3[nH]c2=O)n(-c2ccccc2)n1, the Potency was inconclusive [inhibitor, partial curve, poor fit].
For CN(c1ccccc1)S(=O)(=O)c1ccc(C(=O)NCc2ccccc2CN2CCCC2)cc1, the Potency was inconclusive [inhibitor, single point].
For CC(=O)Nc1ccc(/C=N/N2CCCCC2)cc1, the “activity change, negative = inhibition” value was inactive: 255%.
In the case of CCN(CC(=O)NC(C)C)C(=O)[C@@H](NC(=O)c1ccco1)C(C)C, the “activity change, negative = inhibition” value is reported as inactive: -4.09%.
For Cc1ccccc1-c1cc2c(nn1)-c1ccccc1C2=O, the Potency was active: 4.15 µM.
For Nc1nc(SCC(=O)NCCc2ccccc2)[nH]c(=O)c1-c1ccccc1, the “activity change, negative = inhibition” value was inactive: 5.99%.
With COc1cc(C(C(=O)NC2CCCC2)N(Cc2ccco2)C(=O)c2snc(C(N)=O)c2N)cc(OC)c1OC (stereo not given) the Potency was inconclusive [inhibitor, partial curve].
For O=C(Nc1ccc(S(=O)(=O)N2CCCC2)cc1)c1ccc(CN2CCc3ccccc3C2)cc1, the Potency was inconclusive [inhibitor, single point].
For Cc1ccc(OCCCCN2CCC(C)CC2)cc1, the “activity change, negative = inhibition” value was inactive: -1.15%.
For Cc1ccc(OCCn2c(CCCO)nc3ccccc32)cc1, the Potency was inconclusive [inhibitor, single point].
In the case of COc1ccc(CCNC(=S)NC(=O)c2c(-c3ccccc3Cl)noc2C)cc1OC, the Potency is reported as inconclusive [inhibitor, partial curve].
With Cc1ccc(CN2CCN(/N=C/c3ccc(C(F)(F)F)cc3)CC2)c(C)c1 the Potency was inconclusive [inhibitor, full curve, poor fit].
With Cc1ccc(C(c2sc3ncnn3c2O)N2CC(C)CC(C)C2)cc1 (stereo not given) the Potency was inconclusive [inhibitor, single point].
For CCC(c1nnnn1Cc1ccc2c(c1)OCO2)N1CCN(c2ccc(OC)cc2)CC1 (stereo not given), the Potency was inconclusive [inhibitor, full curve].
In the case of Cc1cc([N+](=O)[O-])nn1CC(=O)N1CCCc2ccccc21, the “activity change, negative = inhibition” value is reported as inactive: 14.1%.
With Clc1ccc(C2CC(c3ccco3)n3ncnc3N2)cc1Cl (stereo not given) the “activity change, negative = inhibition” value was inactive: -6.54%.
With COC(=O)C1=C(O)/C(=C/c2ccc(OCC(=O)Nc3ccccc3)cc2)N=C1C the “activity change, negative = inhibition” value was inactive: -10.6%.
With CCCCn1c(-c2ccc(Cl)c(Cl)c2)nc2cc3[nH]c(=O)c(C(C)C)nc3cc21 the Potency was inconclusive [inhibitor, partial curve, poor fit].
In the case of O=C(CCSc1nc(-c2ccco2)cc(C(F)(F)F)n1)NCCc1ccccc1, the Potency is reported as inconclusive [inhibitor, single point].
With CC(C)c1ccc(S(=O)(=O)c2ccc(NN)cc2)cc1 the Potency was inconclusive [inhibitor, partial curve, poor fit].
With O=C(c1ccc(Cn2c(=O)[nH]c3ccccc3c2=O)cc1)N1CCN(c2ccc(Cl)cc2)CC1 the Potency was inconclusive [inhibitor, partial curve, poor fit].
For O=C(CCCC(=O)N(c1ccc2c(c1)OCCO2)C(C(=O)NC1CCCCC1)c1ccc(F)cc1)Nc1ccccn1 (stereo not given), the Potency was inconclusive [inhibitor, single point].
In the case of Cc1c(N=C2NN=C(c3c[nH]c4ccccc34)CS2)c(=O)n(-c2ccccc2)n1C, the Potency is reported as active: 4.15 µM.
For CC(C)Oc1ccc(S(=O)(=O)N2CCOCC2)cc1NC(=O)C1CSC2(C)CCC(=O)N12 (stereo not given), the Potency was active: 9.28 µM.
In the case of CCCNS(=O)(=O)c1ccc(OCC(=O)Nc2ccc3c(c2)OCO3)cc1, the Potency is reported as inconclusive [inhibitor, partial curve, poor fit].
In the case of O=C(NCc1ccccc1)C(=O)Nc1nc(C23CC4CC(CC(C4)C2)C3)cs1, the Potency is reported as inconclusive [inhibitor, single point].
For COc1cc2c(cc1OC)CN(C(=O)CN1CCN(S(=O)(=O)c3ccccc3)CC1)CC2, the Potency was inconclusive [inhibitor, partial curve, poor fit].
In the case of O=C(O)CC1(CC(=O)N2CCOCC2)CCCC1, the “activity change, negative = inhibition” value is reported as inactive: 36.8%.
In the case of CCCOC(=O)c1ccc(NC(=O)c2cccc(S(=O)(=O)N3CCN(C(C)=O)CC3)c2)cc1, the Potency is reported as inconclusive [inhibitor, single point].
For CCCn1c(NC(=O)C2COc3ccccc3O2)nc2ccccc21 (stereo not given), the Potency was active: 9.28 µM.
For COc1ccccc1CNC(=O)COC(=O)CSc1ccc(Cl)cc1, the Potency was inconclusive [inhibitor, partial curve, poor fit].
With O=C(Cc1ccc(Br)cc1)Nc1ccc(S(=O)(=O)Nc2ncccn2)cc1 the “activity change, negative = inhibition” value was inactive: 11.1%.
With O=C(NCCc1ccccc1)c1ccc(-n2cnnn2)cc1 the “activity change, negative = inhibition” value was inactive: 105%.
For Cc1ccc(C)c(N2CCN(C(=O)C3CCCN(S(=O)(=O)c4c(C)noc4C)C3)CC2)c1 (stereo not given), the Potency was active: 11.7 µM.
In the case of COc1ccc(C(C(=O)NC(C)(C)C)N(Cc2ccc(C)cc2)C(=O)CCC(=O)Nc2cc(C)on2)cc1 (stereo not given), the Potency is reported as active: 9.28 µM.
With O=c1oc2ccccc2n1CCCCCn1c(=O)oc2ccccc21 the Potency was inconclusive [inhibitor, single point].
For Cc1cccc(-n2c(SCC(=O)NCc3ccco3)nc3ccccc3c2=O)c1, the Potency was inconclusive [inhibitor, single point].
For COc1ccccc1-c1oc2ccccc2c1C#CC1(N)CCCCC1, the Potency was active: 8.28 µM.
In the case of O=C1CN(C(=O)COC(=O)CNS(=O)(=O)/C=C/c2ccccc2)c2ccccc2N1, the “activity change, negative = inhibition” value is reported as inactive: 201%.
In the case of S=C(Sc1ccc(Cl)cc1)Sc1ccc(Cl)cc1, the Potency is reported as active: 6.57 µM.
In the case of CN1CCN(CC(=O)NC(=O)NC2CCCCC2)CC1, the “activity change, negative = inhibition” value is reported as inactive: -4.4%.
With CCOC(=O)C1(CC2CC2)CCN(Cc2cc(Cl)c(O)c(OC)c2)CC1 the Potency was inconclusive [inhibitor, partial curve, poor fit].
